# Test system: L1210 lymphoblastic leukemia cells
# Assay: Mouse model of leukemia (L1210), survival and hematological profile
# Settings: L1210-inoculated mice
compound,measurement,value
CC(C)[C@@H](CC[C@@H](C)[C@H]1CC[C@H]2[C@@H]3[C@H](O)C[C@H]4C[C@@H](NCCCNCCCCNCCCN)CC[C@]4(C)[C@H]3CC[C@]12C)OS(=O)(=O)O [Compound 1436],hematological profile,"near normal hematocrit, with evidence of a robust granulocyte count"
